In the supplement of paper PMC12423691 one finds AlphaScreen luminescence signal data, which are given here for seven molecules.

B1: MLXIP, Q9HAP2 (protein)
chain: MAADVFMCSPRRPRSRGRQVLLKPQVSEDDDDSDTDEPSPPPASGAATPARAHASAAPPPPRAGPGREEPPRRQQIIHSGHFMVSSPHREHPPKKGYDFDTVNKQTCQTYSFGKTSSCHLSIDASLTKLFECMTLAYSGKLVSPKWKNFKGLKLQWRDKIRLNNAIWRAWYMQYLEKRKNPVCHFVTPLDGSVDVDEHRRPEAITTEGKYWKSRIEIVIREYHKWRTYFKKRLQQHKDEDLSSLVQDDDMLYWHKHGDGWKTPVPMEEDPLLDTDMLMSEFSDTLFSTLSSHQPVAWPNPREIAHLGNADMIQPGLIPLQPNLDFMDTFEPFQDLFSSSRSIFGSMLPASASAPVPDPNNPPAQESILPTTALPTVSLPDSLIAPPTAPSLAHMDEQGCEHTSRTEDPFIQPTDFGPSEPPLSVPQPFLPVFTMPLLSPSPAPPPISPVLPLVPPPATALNPPAPPTFHQPQKFAGVNKAPSVITHTASATLTHDAPATTFSQSQGLVITTHHPAPSAAPCGLALSPVTRPPQPRLTFVHPKPVSLTGGRPKQPHKIVPAPKPEPVSLVLKNARIAPAAFSGQPQAVIMTSGPLKREGMLASTVSQSNVVIAPAAIARAPGVPEFHSSILVTDLGHGTSSPPAPVSRLFPSTAQDPLGKGEQVPLHGGSPQVTVTGPSRDCPNSGQASPCASEQSPSPQSPQNNCSGKSDPKNVAALKNRQMKHISAEQKRRFNIKMCFDMLNSLISNNSKLTSHAITLQKTVEYITKLQQERGQMQEEARRLREEIEELNATIISCQQLLPATGVPVTRRQFDHMKDMFDEYVKTRTLQNWKFWIFSIIIKPLFESFKGMVSTSSLEELHRTALSWLDQHCSLPILRPMVLSTLRQLSTSTSILTDPAQLPEQASKAVTRIGKRLGES
B2: PHF1, O43189 (protein)
chain: MAQPPRLSRSGASSLWDPASPAPTSGPRPRLWEGQDVLARWTDGLLYLGTIKKVDSAREVCLVQFEDDSQFLVLWKDISPAALPGEELLCCVCRSETVVPGNRLVSCEKCRHAYHQDCHVPRAPAPGEGEGTSWVCRQCVFAIATKRGGALKKGPYARAMLGMKLSLPYGLKGLDWDAGHLSNRQQSYCYCGGPGEWNLKMLQCRSCLQWFHEACTQCLSKPLLYGDRFYEFECCVCRGGPEKVRRLQLRWVDVAHLVLYHLSVCCKKKYFDFDREILPFTSENWDSLLLGELSDTPKGERSSRLLSALNSHKDRFISGREIKKRKCLFGLHARMPPPVEPPTGDGALTSFPSGQGPGGGVSRPLGKRRRPEPEPLRRRQKGKVEELGPPSAVRNQPEPQEQRERAHLQRALQASVSPPSPSPNQSYQGSSGYNFRPTDARCLPSSPIRMFASFHPSASTAGTSGDSGPPDRSPLELHIGFPTDIPKSAPHSMTASSSSVSSPSPGLPRRSAPPSPLCRSLSPGTGGGVRGGVGYLSRGDPVRVLARRVRPDGSVQYLVEWGGGGIF
B3: TRPS1, Q9UHF7 (protein)
chain: MVRKKNPPLRNVASEGEGQILEPIGTESKVSGKNKEFSADQMSENTDQSDAAELNHKEEHSLHVQDPSSSSKKDLKSAVLSEKAGFNYESPSKGGNFPSFPHDEVTDRNMLAFSSPAAGGVCEPLKSPQRAEADDPQDMACTPSGDSLETKEDQKMSPKATEETGQAQSGQANCQGLSPVSVASKNPQVPSDGGVRLNKSKTDLLVNDNPDPAPLSPELQDFKCNICGYGYYGNDPTDLIKHFRKYHLGLHNRTRQDAELDSKILALHNMVQFSHSKDFQKVNRSVFSGVLQDINSSRPVLLNGTYDVQVTSGGTFIGIGRKTPDCQGNTKYFRCKFCNFTYMGNSSTELEQHFLQTHPNKIKASLPSSEVAKPSEKNSNKSIPALQSSDSGDLGKWQDKITVKAGDDTPVGYSVPIKPLDSSRQNGTEATSYYWCKFCSFSCESSSSLKLLEHYGKQHGAVQSGGLNPELNDKLSRGSVINQNDLAKSSEGETMTKTDKSSSGAKKKDFSSKGAEDNMVTSYNCQFCDFRYSKSHGPDVIVVGPLLRHYQQLHNIHKCTIKHCPFCPRGLCSPEKHLGEITYPFACRKSNCSHCALLLLHLSPGAAGSSRVKHQCHQCSFTTPDVDVLLFHYESVHESQASDVKQEANHLQGSDGQQSVKESKEHSCTKCDFITQVEEEISRHYRRAHSCYKCRQCSFTAADTQSLLEHFNTVHCQEQDITTANGEEDGHAISTIKEEPKIDFRVYNLLTPDSKMGEPVSESVVKREKLEEKDGLKEKVWTESSSDDLRNVTWRGADILRGSPSYTQASLGLLTPVSGTQEQTKTLRDSPNVEAAHLARPIYGLAVETKGFLQGAPAGGEKSGALPQQYPASGENKSKDESQSLLRRRRGSGVFCANCLTTKTSLWRKNANGGYVCNACGLYQKLHSTPRPLNIIKQNNGEQIIRRRTRKRLNPEALQAEQLNKQQRGSNEEQVNGSPLERRSEDHLTESHQREIPLPSLSKYEAQGSLTKSHSAQQPVLVSQTLDIHKRMQPLHIQIKSPQESTGDPGNSSSVSEGKGSSERGSPIEKYMRPAKHPNYSPPGSPIEKYQYPLFGLPFVHNDFQSEADWLRFWSKYKLSVPGNPHYLSHVPGLPNPCQNYVPYPTFNLPPHFSAVGSDNDIPLDLAIKHSRPGPTANGASKEKTKAPPNVKNEGPLNVVKTEKVDRSTQDELSTKCVHCGIVFLDEVMYALHMSCHGDSGPFQCSICQHLCTDKYDFTTHIQRGLHRNNAQVEKNGKPKE
B4: CHUK, O15111 (protein)
chain: MERPPGLRPGAGGPWEMRERLGTGGFGNVCLYQHRELDLKIAIKSCRLELSTKNRERWCHEIQIMKKLNHANVVKACDVPEELNILIHDVPLLAMEYCSGGDLRKLLNKPENCCGLKESQILSLLSDIGSGIRYLHENKIIHRDLKPENIVLQDVGGKIIHKIIDLGYAKDVDQGSLCTSFVGTLQYLAPELFENKPYTATVDYWSFGTMVFECIAGYRPFLHHLQPFTWHEKIKKKDPKCIFACEEMSGEVRFSSHLPQPNSLCSLVVEPMENWLQLMLNWDPQQRGGPVDLTLKQPRCFVLMDHILNLKIVHILNMTSAKIISFLLPPDESLHSLQSRIERETGINTGSQELLSETGISLDPRKPASQCVLDGVRGCDSYMVYLFDKSKTVYEGPFASRSLSDCVNYIVQDSKIQLPIIQLRKVWAEAVHYVSGLKEDYSRLFQGQRAAMLSLLRYNANLTKMKNTLISASQQLKAKLEFFHKSIQLDLERYSEQMTYGISSEKMLKAWKEMEEKAIHYAEVGVIGYLEDQIMSLHAEIMELQKSPYGRRQGDLMESLEQRAIDLYKQLKHRPSDHSYSDSTEMVKIIVHTVQSQDRVLKELFGHLSKLLGCKQKIIDLLPKVEVALSNIKEADNTVMFMQGKRQKEIWHLLKIACTQSSARSLVGSSLEGAVTPQTSAWLPPTSAEHDHSLSCVVTPQDGETSAQMIEENLNCLGHLSTIIHEANEEQGNSMMNLDWSWLTE
B5: ZFPM1, Q8IX07 (protein)
chain: MSRRKQSNPRQIKRSLGDMEAREEVQLVGASHMEQKATAPEAPSPPSADVNSPPPLPPPTSPGGPKELEGQEPEPRPTEEEPGSPWSGPDELEPVVQDGQRRIRARLSLATGLSWGPFHGSVQTRASSPRQAEPSPALTLLLVDEACWLRTLPQALTEAEANTEIHRKDDALWCRVTKPVPAGGLLSVLLTAEPHSTPGHPVKKEPAEPTCPAPAHDLQLLPQQAGMASILATAVINKDVFPCKDCGIWYRSERNLQAHLLYYCASRQGTGSPAAAATDEKPKETYPNERVCPFPQCRKSCPSASSLEIHMRSHSGERPFVCLICLSAFTTKANCERHLKVHTDTLSGVCHSCGFISTTRDILYSHLVTNHMVCQPGSKGEIYSPGAGHPATKLPPDSLGSFQQQHTALQGPLASADLGLAPTPSPGLDRKALAEATNGEARAEPLAQNGGSSEPPAAPRSIKVEAVEEPEAAPILGPGEPGPQAPSRTPSPRSPAPARVKAELSSPTPGSSPVPGELGLAGALFLPQYVFGPDAAPPASEILAKMSELVHSRLQQGAGAGAGGAQTGLFPGAPKGATCFECEITFSNVNNYYVHKRLYCSGRRAPEDAPAARRPKAPPGPARAPPGQPAEPDAPRSSPGPGAREEGAGGAATPEDGAGGRGSEGSQSPGSSVDDAEDDPSRTLCEACNIRFSRHETYTVHKRYYCASRHDPPPRRPAAPPGPPGPAAPPAPSPAAPVRTRRRRKLYELHAAGAPPPPPPGHAPAPESPRPGSGSGSGPGLAPARSPGPAADGPIDLSKKPRRPLPGAPAPALADYHECTACRVSFHSLEAYLAHKKYSCPAAPPPGALGLPAAACPYCPPNGPVRGDLLEHFRLAHGLLLGAPLAGPGVEARTPADRGPSPAPAPAASPQPGSRGPRDGLGPEPQEPPPGPPPSPAAAPEAVPPPPAPPSYSDKGVQTPSKGTPAPLPNGNHRYCRLCNIKFSSLSTFIAHKKYYCSSHAAEHVK
B6: ZNF584, Q8IVC4 (protein)
chain: MAGEAEAQLDPSLQGLVMFEDVTVYFSREEWGLLNVTQKGLYRDVMLENFALVSSLGLAPSRSPVFTQLEDDEQSWVPSWVDVTPVSRAEARRGFGLDGLCRVEDERAHPEHLKSYRVIQHQDTHSEGKPRRHTEHGAAFPPGSSCGQQQEVHVAEKLFKCSDCGKVFLKAFALLDHLITHSEERPFRCPTGRSAFKKSAHINPRKIHTGETAHVCNECGKAFSYPSKLRKHQKVHTGIKPFKCSDCGKTFNRKDALVLHQRIHTGERPYECSKCGKTFSVLSTLIRHRKVHIGERPYECTECGKFFKYNNSFILHQRVHTGERPFECKQCGKGYVTRSGLYQHWKVHTGERPYECSLCGKTFTTRSYRNRHQQFHTEERSYECTECGKAFKHSSTLLQHKKVHTPERRQEDRAHGKVVSC
B7: GATAD1, Q8WUU5 (protein)
chain: MPLGLKPTCSVCKTTSSSMWKKGAQGEILCHHCTGRGGAGSGGAGSGAAGGTGGSGGGGFGAATFASTSATPPQSNGGGGGKQSKQEIHRRSARLRNTKYKSAPAAEKKVSTKGKGRRHIFKLKNPIKAPESVSTIITAESIFYKGVYYQIGDVVSVIDEQDGKPYYAQIRGFIQDQYCEKSAALTWLIPTLSSPRDQFDPASYIIGPEEDLPRKMEYLEFVCHAPSEYFKSRSSPFPTVPTRPEKGYIWTHVGPTPAITIKESVANHL

The list shows a part of the results. Binding of human transcription factors and regulators to the viral nucleoprotein by AlphaScreen, crude cell-free proteins, amounts not normalised, one pass. Fold of the Venus control; higher = more signal. No active / inactive call. Single-pass screen; sequences are the whole Swiss-Prot entries looked up by name.

The target in the assay is nucleoprotein N of Crimean-Congo hemorrhagic fever virus. Kind of assay: AlphaScreen luminescence signal relative to Venus negative control (fold); higher = stronger binding to CCHFV N. As for the experimental part: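 AlphaScreen binding of cell-free made, FLAG-GST-tagged human transcription factors and regulators (crude translation products) to biotinylated N protein; signal as fold of the FLAG-GST-Venus control. One pass.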
Molecule B1 had an AlphaScreen luminescence signal of 1.4.
In the case of B2 it was 1.86; in that of B3, 1.86; in that of B4, 2.6.
To B5 belongs 2.51; to B6, 1.72; to B7, 3.77.
